PMC4336329 (PLoS ONE, 2015)
Screen size: about 310,000 compounds; about 14,000 (4.5%) showed an effect of 50% or more. The effect is printed as a negative number. The list shows a part of the results.

Molecular target: human ether-à-go-go-related gene (hERG) potassium channel (human, UniProt Q12809)
Experiment: primary screen, population patch clamp on CHO cells stably expressing hERG
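Also: peak tail current of the secondary pulse compared with the same well before compound.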

human ether-à-go-go-related gene (hERG) potassium channel, sequence (Q12809 whole entry, looked up): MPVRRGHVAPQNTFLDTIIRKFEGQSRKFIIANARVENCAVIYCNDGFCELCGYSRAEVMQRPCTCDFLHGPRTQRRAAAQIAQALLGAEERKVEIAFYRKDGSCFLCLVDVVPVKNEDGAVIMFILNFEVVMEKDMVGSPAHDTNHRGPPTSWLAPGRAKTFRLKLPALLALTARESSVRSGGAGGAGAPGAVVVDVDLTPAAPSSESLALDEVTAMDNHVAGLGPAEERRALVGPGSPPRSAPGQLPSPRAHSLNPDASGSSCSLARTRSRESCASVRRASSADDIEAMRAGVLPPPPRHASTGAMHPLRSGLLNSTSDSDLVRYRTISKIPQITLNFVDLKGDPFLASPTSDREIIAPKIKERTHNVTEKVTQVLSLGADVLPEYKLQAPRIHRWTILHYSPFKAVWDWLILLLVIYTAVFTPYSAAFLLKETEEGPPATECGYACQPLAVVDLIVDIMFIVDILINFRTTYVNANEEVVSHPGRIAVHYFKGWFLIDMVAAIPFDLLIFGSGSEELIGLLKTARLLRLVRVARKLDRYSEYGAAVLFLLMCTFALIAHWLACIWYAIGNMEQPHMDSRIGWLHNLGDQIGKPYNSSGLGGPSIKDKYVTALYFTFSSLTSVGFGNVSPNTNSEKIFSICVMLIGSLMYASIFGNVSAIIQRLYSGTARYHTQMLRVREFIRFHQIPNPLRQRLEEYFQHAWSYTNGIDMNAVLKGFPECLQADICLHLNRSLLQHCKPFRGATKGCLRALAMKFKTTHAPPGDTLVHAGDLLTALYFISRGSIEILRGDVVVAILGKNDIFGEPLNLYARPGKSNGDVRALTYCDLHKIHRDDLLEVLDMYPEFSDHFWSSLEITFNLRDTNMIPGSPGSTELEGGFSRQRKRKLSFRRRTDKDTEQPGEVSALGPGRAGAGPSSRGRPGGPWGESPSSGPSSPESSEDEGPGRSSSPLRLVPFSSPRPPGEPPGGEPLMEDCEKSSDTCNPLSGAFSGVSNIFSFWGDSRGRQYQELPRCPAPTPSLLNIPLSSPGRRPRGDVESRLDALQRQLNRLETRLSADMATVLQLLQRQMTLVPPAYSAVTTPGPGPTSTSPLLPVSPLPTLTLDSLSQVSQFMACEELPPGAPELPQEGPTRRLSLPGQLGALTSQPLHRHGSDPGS

Row | SMILES | hERG current change (%, negative = inhibition) at 10uM [%]
1 | Cc1cccn2c(=O)c3cc(C(=O)O)n(C)c3nc12 | 6.65
2 | CCOc1cccc2sc(N(CCN(CC)CC)C(=O)c3cccc([N+](=O)[O-])c3)nc12.Cl | -75
3 | O=C(NCCS(=O)(=O)c1ccc(Br)cc1)c1ccc(Cl)cc1 | -2.62
4 | CS(=O)(=O)N1CCN(c2ccc(C(=O)NC3C4CC5CC(C4)CC3C5)cc2[N+](=O)[O-])CC1 (stereo not drawn) | -13.5
5 | CCNC(=S)N/N=C/c1c(C)nn(-c2cccc(Cl)c2)c1Cl | -4.28
6 | O=Cc1ccc(-n2nncc2-c2ccc([N+](=O)[O-])cc2)cc1 | -67.3
7 | CCc1ccc(N2CN(CCc3ccccc3)CNC2=S)cc1 | 16.3
8 | Nc1ccc(C(=O)Nc2cccc3ncccc23)cc1 | 15.5
9 | Nc1c2c(nc3ccc(Br)cc13)N(c1ccccc1)CC2.O=C(O)C(=O)O | -21.3
10 | CCN1C(=O)NC(c2ccccc2)(c2ccccc2)C1=O | 14
11 | Cn1c(=O)c(C(=O)NCC2CCCO2)c(O)c2ccccc21 (stereo not drawn) | -18.8
12 | Cn1nnc2cc(C(=O)N3CCCCCC3)ccc21 | -9.42
13 | COC(=O)C1=C(C)NC2=C(C(=O)CCC2)C1c1cccc(C)n1 (stereo not drawn) | -8.04
14 | COc1ccc(C(=O)c2c(-c3ccsc3)oc3ccc(-c4ccc(OC)cc4)cc23)cc1 | 1.76
15 | COc1ccc(NC(=O)C2CCCN(c3cnccn3)C2)cc1 (stereo not drawn) | 12.8
16 | O=C(Nc1c(-c2ccccc2)nc2ccc(Cl)cn12)c1cccs1 | 8.37
17 | CCCCn1c(N)c(N(CCOC)C(=O)C2CCN(c3ncnc4sc(C)c(C)c34)CC2)c(=O)[nH]c1=O | 1.65
18 | C/C(N)=C(/C#N)C(=O)CSc1nnc(COc2ccccc2Cl)o1 | 9.3
19 | COC(=O)c1cc(NS(=O)(=O)c2ccc(N3CCOCC3)c(N)c2)cc(C(=O)OC)c1 | -0.151
20 | COc1ccc(C(=O)Nc2ccccc2C(=O)Nc2ccccn2)cc1 | 12.7
21 | O=C1/C(=C/c2ccc(F)cc2)SC(=S)N1Nc1ncc(C(F)(F)F)cc1Cl | 8.08
22 | CCCCOc1ccc(/C=C/C(=O)NC2=Nc3ccccc3NC(C)=C2C(=O)OCC)cc1OC | 1.66
23 | O=C1CC[C@H](N2C(=O)c3ccccc3C2=O)C(=O)N1 | 17.1

Row | SMILES | hERG current change (%, negative = inhibition) at 10uM [%]
24 | O=C(NCC1CCCO1)c1cc(-c2ccc(F)cc2)no1 (stereo not drawn) | 0.634
25 | NC(=O)C(=O)N/N=C/c1cccc(C(F)(F)F)c1 | 2.49
26 | O=C1CC(c2cccs2)c2cc3c(cc2N1)OCCO3 (stereo not drawn) | 2.53
27 | C/C(=N\NC(=O)c1cc2c(s1)CCC(C)C2)c1cccnc1 (stereo not drawn) | 4.68
28 | Cc1ccc(-c2cc(-c3ccc(F)cc3)c(C#N)c(N)n2)o1 | 0.139
29 | COc1ccc(S(=O)(=O)N(C)CC(=O)Nc2cccc(C(C)=O)c2)cc1 | 4.78
30 | O=[N+]([O-])c1cc(Cl)cc(/C=N/NC(=S)Nc2cc(S(=O)(=O)N3CCOCC3)ccc2Cl)c1O | 24.3
31 | O=C(N/C(=C\c1ccc2c(c1)OCO2)C(=O)N1CCOCC1)c1cccs1 | -42.8
32 | Cc1nnc(SCC(=O)Nc2nccs2)o1 | 6.02
33 | O=C(NCCN1CCCCC1)c1ccc(Oc2cc(Cl)cc(Cl)c2)o1 | -54.8
34 | Cc1ccc(N(CC(=O)NC2CCCC2)C(=O)c2nsc(Cl)c2Cl)cc1 | -1.67
35 | COC(=O)CC(NS(=O)(=O)c1cccs1)c1cccc2ccccc12 (stereo not drawn) | 1.97
36 | CSc1nc2sc3c(c2c(=O)[nH]1)CCC(C)C3 (stereo not drawn) | 22.3
37 | CCOc1ccc(/C=N/NC(=O)C2(O)c3ccccc3-c3ccccc32)cc1 | 4.13
38 | CC1CCN(CC(=O)Nc2ccccc2-c2ccccc2)CC1 | -25.1
39 | COc1ccc(Br)cc1S(=O)(=O)NCc1ccccc1 | -8.37
40 | COc1ccc([N+](=O)[O-])cc1NC(=O)Cn1ccsc1=N.Cl | -11
41 | Cc1oc2cc3oc(=O)c(CCC(=O)NCCCN4CCCC4=O)c(C)c3cc2c1C | -8
42 | CCOc1ccc(CCNC(=O)c2cc(C)on2)cc1OCC | 11.9
43 | COc1ccc(N2CCN(C(=O)COc3ccc4ccccc4c3)CC2)cc1 | 5.36
44 | CC1(C)Cc2ccccc2C(N/N=C/c2ccc(Cl)cc2)=N1 | -2.4
45 | Cc1cccn2c(=O)c(/C=C(\C#N)C(N)=O)c(N3CCN(c4ccccc4)CC3)nc12 | -48.8
